4 compounds from patent publication US9573895B2, “Tetracycline compounds” (Tetraphase Pharmaceuticals, Inc., priority 2012, dated 2017) can be followed below.

The test system of this test is K. pneumoniae UNT023-1(KPC producing strain). Description: Mouse Pneumonia Study. The following applies: female CD-1 mice; for Log10 change from 2 hr Control / Log10 change from 24 hr Control: BID @ 2 and 12 hrs; for Mean log10 CFU/pair Lung: BID @ 2 and 12 hrs post-infection, 24 hour lung CFU.

Take `CCN(C)[C@@H]1C(O)=C(C(N)=O)C(=O)[C@@]2(O)C(O)=C3C(=O)c4c(O)cc(C5CCCN5)c(C(F)(F)F)c4C[C@H]3C[C@@H]12` (single isomer, unassigned) [Compound S4-14-5-A]: under “5 mg/kg/dose IV”, the “Log10 change from 2 hr Control” value amounted to 1.58 Log10, the “Log10 change from 24 hr Control” value is reported as −0.38 Log10 and the “Mean log10 CFU/pair Lung” value was found to be 9.11 log10 CFU/pair Lung. Also, for the setting “15 mg/kg/dose IV”, the “Log10 change from 2 hr Control” value was −0.03 Log10, the “Log10 change from 24 hr Control” value is reported as −1.99 Log10 and the “Mean log10 CFU/pair Lung” value worked out at 7.51 log10 CFU/pair Lung. Under “40 mg/kg/dose IV”, the “Log10 change from 2 hr Control” value is recorded as −0.85 Log10, the “Log10 change from 24 hr Control” value is on record as −2.81 Log10 and the “Mean log10 CFU/pair Lung” value is listed as 6.69 log10 CFU/pair Lung.
On to `CCN(C)[C@@H]1C(O)=C(C(N)=O)C(=O)[C@@]2(O)C(O)=C3C(=O)c4c(O)cc5c(c4C[C@H]3C[C@@H]12)N(C)CC1CCN(C)C51` (single isomer, unassigned) [Compound S5-10-3-B], for which, where the note is “5 mg/kg/dose IV”, the “Log10 change from 2 hr Control” value came out at 0.08 Log10, the “Log10 change from 24 hr Control” value is −1.88 Log10 and the “Mean log10 CFU/pair Lung” value came to 7.62 log10 CFU/pair Lung. For the setting “15 mg/kg/dose IV”, the “Log10 change from 2 hr Control” value is reported as −0.62 Log10, the “Log10 change from 24 hr Control” value is −2.58 Log10 and the “Mean log10 CFU/pair Lung” value is reported as 6.92 log10 CFU/pair Lung. In addition, where the note is “40 mg/kg/dose IV”, the “Log10 change from 2 hr Control” value is reported as −1.26 Log10, the “Log10 change from 24 hr Control” value is recorded as −3.21 Log10 and the “Mean log10 CFU/pair Lung” value turned out to be 6.28 log10 CFU/pair Lung.
On to `CN(C)c1cc(NC(=O)CNC(C)(C)C)c(O)c2c1C[C@H]1C[C@H]3[C@H](N(C)C)C(O)=C(C(N)=O)C(=O)[C@@]3(O)C(O)=C1C2=O` [Tigecycline, tigecycline], for which, where the note is “80 mg/kg/dose IV”, the “Log10 change from 2 hr Control” value came to 0.73 Log10, the “Log10 change from 24 hr Control” value is listed as −1.23 Log10 and the “Mean log10 CFU/pair Lung” value is 8.27 log10 CFU/pair Lung.
Consider `CCN(CC)[C@@H]1C(O)=C(C(N)=O)C(=O)[C@@]2(O)C(O)=C3C(=O)c4c(O)cc(C5CCCN5)c(C(F)(F)F)c4C[C@H]3C[C@@H]12` (single isomer, unassigned) [Compound S4-14-14-A], for which, under “5 mg/kg/dose IV”, the “Log10 change from 2 hr Control” value turned out to be 1.63 Log10, the “Log10 change from 24 hr Control” value is listed as −0.33 Log10 and the “Mean log10 CFU/pair Lung” value came out at 9.16 log10 CFU/pair Lung. Besides, where the note is “15 mg/kg/dose IV”, the “Log10 change from 2 hr Control” value is −0.83 Log10, the “Log10 change from 24 hr Control” value is listed as −2.79 Log10 and the “Mean log10 CFU/pair Lung” value came out at 6.71 log10 CFU/pair Lung. Moreover, under “40 mg/kg/dose IV”, the “Log10 change from 2 hr Control” value is −1.22 Log10, the “Log10 change from 24 hr Control” value is reported as −3.18 Log10 and the “Mean log10 CFU/pair Lung” value came out at 6.32 log10 CFU/pair Lung.
